The supplement of paper PMC11417369
Some of the results follow.

The sequences below were run on PF3D7_0420300 AP2 domain 1 (GST-tagged) (assay: gcPBM binding intensity (ln(normalized median fluorescence intensity)); higher = stronger DNA binding).
In short: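 The binding buffer was 1× PBS containing 1% milk, 0.2 mg/ml BSA, 0.5% salmon testes DNA and 0.03% Triton X-100. In it, GST-tagged P. falciparum DNA-binding domains expressed in E. coli were applied for 1 h to an Agilent 4 × 180k array of primer-extended double-stranded 36-bp intergenic genomic probes plus negative controls. Binding intensity, read with Alexa488 anti-GST antibody and a 488 nm scan, is the highest Masliner-normalised natural-log median intensity across replicate spots of either probe orientation.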

Sequence	gcPBM binding intensity (ln)
GTTAATTCTATGAATTGTACTTAAATATAATTATAT [XGTACX_site2785]	9.09
CAAAATAAAAATAACACACACATTTATATAAATACA [CACACA_site4790]	9.9
ACAGTTAAAACAATAACACACAAAGAAAAAAAAAAA [CACACA_site737]	9.6
TATAATATATTATATACACACATTATAAAATACCCA [CACACA_site4858]	9.69
AGGTAGAAATTGTTAAAAAATCATACATATTATATA [CACACA_negctrl_site622]	9.09
TATATTTTTATTGAACGTACAAAAAGTCGAAAACAG [XGTACX_site3967]	9
TTTAAATACAGACATACACACATACACGCACATATA [CACACA_site6400]	9.85
TCTTATAAAGGTAATTGTACATATTTATAATTTCTT [XGTACX_site4847]	9.13
GTGAAAGGAAAAGTTGAACACACAAAGTAAACTATA [CACACA_site9178]	9.56
AATAATATTTAATACGCACACAATAATAATATAAAA [CACACA_site1763]	9.51
CACACGCACGAACACACACACATATAAATATAAATA [CACACA_site6299]	9.92
ATATATTATTATACATGTACATATATAGATATATAT [XGTACX_site4358]	9.3
ATATACATATAGGATGCACACATAATTCAAATACAA [CACACA_site8120]	9.6
AACAATAATTTTGAATGTACATATAAATATTTTTAT [XGTACX_site5501]	9.13
TATAATGGTTCTGGTGTGCACCATGACAGAATCAAG	9.09
AAAAAAAAGAATAGCACACACACATATATAAATATA [CACACA_site630]	10.1
TTATTTTTTAATTATATTCAAAATTAAAAAAAAAAA [XGTACX_negctrl_site226]	8.34
ATTAAAAAAAAAAAAAAAAAAAAAAAAAAAAAAAAA [CACACA_negctrl_site1060]	8.56
ATTGATAAATTAACTAGTACACATATAAATATATTA [XGTACX_site2325]	9.12
AATATAAATGTGATTACACACAACAGATTTAAATGG [CACACA_site4802]	9.53
TATATGTATCCATTATGTACATAATAGTAATATAAT [XGTACX_site4008]	9.18
TATATTTATTTTCTGTGTACACATATGTTGTGTATT [XGTACX_site7640]	9.62
AAAACCTAGTGCATTTGTACATATTTCAATTTTAAA [XGTACX_site4582]	9.04

Sequence	gcPBM binding intensity (ln)
TAAAAAATACAAGAGTGTACAAAATTTTTCTAAATG [XGTACX_site5334]	9.06
TATACGTGTTTTATTTGTACTTAAGCAGGTAAGCAT [XGTACX_site193]	9.15
CTATATATTTTTTCTTAACACACATATATAAAATAA [CACACA_site9165]	9.26
GTAATTTTTTTCTATACACACATATATATAATATAT [CACACA_site2655]	9.58
AATATAAATATAAATATAAATAAATAAATAAATAAA [CACACA_negctrl_site291]	9.27
AAAGTAAAAGGGTTTGGTACACATATAATATATTAG [XGTACX_site6036]	9.52
CATTTATATAAAGAATGTACACACAGAAATGCACAC [XGTACX_site4718]	9.76
AGTAAAAGAAAGCACACACACATGTATTTATGTATG [CACACA_site5998]	9.96
ATAACTTTTATTTGTACACACATACATCTATATTAT [CACACA_site6595]	9.83
TAGTATTTATATGATTAACACACATATGGGTATTAA [CACACA_site8363]	9.28
CATAATAGTTATAAAATACACACCAGGCATGATAAA [CACACA_site329]	9.41
AAAAAAAAAAAAAAAAGTACTCAATAATAATTACAT [XGTACX_site670]	9.14
ATAATGTTCACATAGGTGCACTAATATAATTATCCA [GTGCAC_site9981]	9.18
ATATACACCTGAGAGGTGCATATATATAAAATTTAC	9.06
AATGTAGTTTATCGATGTACACAAAATAAAGAGAAG [XGTACX_site6956]	9.42
CCGTACAATTTTGTCACACATAAAATACTTATGTAT [CACACA_site4871]	9.16
TGCATATACTCAAGCACACATATATATATATATATA [CACACA_site4733]	9.27
AATTAATGGTTAAAGGTGCACAATACATATATTACA [GTGCAC_site9943]	9.58
ATATTAAACAAACACACACACATATATATATATATA [CACACA_site3383]	9.9
ATATATTGAAAATATAGTACATAATAAATGTTCTTT [XGTACX_site8474]	9.05
TTTTTTTTTTTTTTTTTTTTTTTTTTTTTTTGGGGG [CACACA_negctrl_site1570]	9.7
AATAAATTTAAACACACACACACATATATATATATA [CACACA_site4621]	9.99
TATATACATAAACACACACACACATATATATATATA [CACACA_site8707]	10.1

Sequence	gcPBM binding intensity (ln)
AAAAAAAAAAAAAAATGTACATATATATATATATTA [XGTACX_site7330]	8.98
CCTTGTCTTTTTTTTTTTTTTTTTTCTTCTTATTTT [GTGCAC_negctrl_site523]	9.68
ATAAAATAAGACAAAAAAAAAATATATATATATATA [TGCATGCA_negctrl_site314]	9.17
AGTAGATATAATATATGTACATATATATATATATAT [XGTACX_site7186]	9.14
ATATTAAGAATAAACAGTACATATAATAAATACCAT [XGTACX_site5933]	9.67
AAAAAAAAAAAAATTACACACATACATATAATAATA [CACACA_site8680]	9.66
TTTGTGTATATATAATGTACATTATATTTTTATTAT [XGTACX_site6506]	9.43
TATAAATTTATAAATAGTACATATATTTATATATAT [XGTACX_site6433]	9.07
ATTAAAAAAAAAGAGCGTACAAATAATTACTTCTTT [XGTACX_site8262]	9.09
AAAAAAAATATACATACATGCATACATAAGTTTCTA [TGCATGCA_site998]	9.15
TATATATATGGACACACACACACATATATATATATA [CACACA_site6121]	10
ATATTACATAATATATGTACACACGCAAATACTTAT [XGTACX_site671]	9.48
CAGATAGACTTATATGCATGCATTCACCTGCCAACA [TGCATGCA_site158]	9.06
TAAGCATAAATGTATACATGCGATGCATACACATAT [TGCATGCA_site749]	9.05
ATGAAATTATATTGGGGTACGTCAAAAAAGGAGATA [XGTACX_site7451]	9.44
GGGTATATATTATTATGTACACATGTATAAAATAAG [XGTACX_site2633]	9.24
ATGTGCAAATATTAAAGTACTAAATTTTATTATTTT [XGTACX_site7306]	9.18
ATAAATACATATAAAAGTACACACACACACATATAT [XGTACX_site1744]	10.4
TGAAATTTCAATACATGTACATATAAAAAAAAAAAA [XGTACX_site4424]	9.13
TGTATATGTGAAGCAAGGGATGCGGCAGACATAACA [CACACA_negctrl_site1339]	9.59
TTTTTTTTTTCTACAAGTACATATTTTCATTTAACA [XGTACX_site6621]	9.14
AAATTAAAAAAAAATAAATAAAAAAAAAAAAAAAAT [CACACA_negctrl_site1611]	9.35
AAAAAAAAAAAAAAATGTACATATATATATTATAAA [XGTACX_site518]	9.17

Sequence	gcPBM binding intensity (ln)
AAACGTATGTTATTTACACACCCTTCCACTTTTATA [CACACA_site3337]	9.54
TATAAAATAAGACATGCATGTTATACATATATATTT [TGCATGCA_site156]	9.29
CATTATTATTTTATAACACACACATATATATTATAT [CACACA_site8405]	9.59
ATGTTTTTTATTCTTCGTACGTATGAACGATAGTGT [XGTACX_site4225]	9.28
AAAAGATTTATACATACACACATATTATAGTCACAT [CACACA_site7701]	9.77
GGAAACCTTTTTTTTACACACAATATATTAATACTT [CACACA_site1403]	9.69
TTTGTTTTAAATATTATACACACGTAAAAGTAGAAT [CACACA_site214]	9.38
CAAGAAAATGGACACACACACATATATATATATATA [CACACA_site6010]	9.68
CAAATTTAAAAAAAATCACACACAGAAAAAAAAAAA [CACACA_site8728]	9.66
TACACCCTATTTTTATGTACTTATTTGATTTACACA [XGTACX_site8172]	9.65
ATATAAATACGGTGTGCACACACATAATATATATAT [CACACA_site2271]	9.96
TGTATACGCATATGTACACACATATATATGTATATG [CACACA_site3087]	9.51
GTGTAATTATCAGCATAAATATGGTACATACATAAA [CACACA_negctrl_site323]	9.38
TTTTTTTTTTTGTTCACACATATACTTTTATTTTGG [CACACA_site4250]	9.46
AATGCTATCATTAATGCACACATTTAAACTTAATAT [CACACA_site5878]	9.36
TATAACGCTTGCAGCTGTACAAAAATAATCAAACTG [XGTACX_site2464]	9.04
TTAAATGAAAAAATATGTACGTATAATAAGAAATAT [XGTACX_site6619]	9.57
GTATGAGTCGTAGAGTGTACTCTGGAGAAAACTACA [XGTACX_site4942]	9.15
TATTTTTTCTTAAACACACACATATATATATAGAAT [CACACA_site2836]	9.55
TTTTTTCTTAGTTATACATGCAAAATAAATAAATAA [TGCATGCA_site410]	8.82
